Test results from the supplement of paper PMC8007513.
Counter-ions that a name gives are not always drawn. ± gives the standard error. Among all 1,300 compounds or so, about 130 (10%) showed an effect of 50% or more. Only a part is listed here, and it is no random draw.

Test system: Trichoderma virens ATCC 9645
Assay: growth yield (OD600) with compound + IPBC relative to untreated control; higher = less growth inhibition
Settings: compound concentration: 100 uM, IPBC concentration: 200 ng/ml
Summary of the method: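 Growth appears as means of duplicate screens, relative to the control containing neither agent. To obtain it, OD600 was read on a BioTek EL800 at 40 h and 72 h. The cultures were 100 μl aliquots in 96-well plates at 30 °C, holding Trichoderma virens ATCC 9645 spores at 15,000 spores ml^−1 in potato dextrose broth, library compounds at 100 μM final, and, in some wells, a biocide at 200 ng ml^−1.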

SMILES | growth yield (40 h) | growth yield (72 h)
CCc1cccc(CC)c1NC(=O)CN(CC(=O)O)CC(=O)O [Etifenin] + CCCCNC(=O)OCC#CI [3-iodo-2-propynyl butylcarbamate (IPBC)] | 87.7 ± 4.1% | 94.4 ± 2.3%
CN/C(=N\CCSCc1nc[nH]c1C)NC#N [Cimetidine] + CCCCNC(=O)OCC#CI [3-iodo-2-propynyl butylcarbamate (IPBC)] | 85.8 ± 2.9% | 92.4 ± 4.3%
CCCCc1ccc2[nH]c(NC(=O)OC)nc2c1 [Parbendazole] + CCCCNC(=O)OCC#CI [3-iodo-2-propynyl butylcarbamate (IPBC)] | 27 ± 4.1% | 80.2 ± 2.2%
C[C@]12CC[C@@H](O)C[C@@H]1CC[C@@H]1[C@@H]2CC[C@]2(C)C(=O)CC[C@@H]12 [Androsterone] + CCCCNC(=O)OCC#CI [3-iodo-2-propynyl butylcarbamate (IPBC)] | 57.82 ± 0.32% | 91.5%
Nc1ncnc2c1ncn2C1OC(COP(=O)(O)O)C(O)C1O (configuration not stated) [Adenosine 5'-monophosphate monohydrate] + CCCCNC(=O)OCC#CI [3-iodo-2-propynyl butylcarbamate (IPBC)] | 79.4 ± 1.3% | 91.2 ± 1.1%
C[C@@H]1C[C@H]2[C@@H]3CCC4=CC(=O)C=C[C@]4(C)[C@@]3(Cl)[C@@H](O)C[C@]2(C)[C@@]1(OC(=O)c1ccco1)C(=O)CCl [Mometasone furoate] + CCCCNC(=O)OCC#CI [3-iodo-2-propynyl butylcarbamate (IPBC)] | 86.57 ± 0.79% | 87.2 ± 2%
CC(C)(Oc1ccc(CCNC(=O)c2ccc(Cl)cc2)cc1)C(=O)O [Bezafibrate] + CCCCNC(=O)OCC#CI [3-iodo-2-propynyl butylcarbamate (IPBC)] | 77.67 ± 0.16% | 90.1 ± 0.94%
OCCN1CCN(CCCN2c3ccccc3Sc3ccc(C(F)(F)F)cc32)CC1 [Fluphenazine dihydrochloride] + CCCCNC(=O)OCC#CI [3-iodo-2-propynyl butylcarbamate (IPBC)] | 2.86% | 2.31 ± 0.21%
c1ccc(CC2=NCCN2)cc1 [Tolazoline hydrochloride] + CCCCNC(=O)OCC#CI [3-iodo-2-propynyl butylcarbamate (IPBC)] | 88.16 ± 0.79% | 91.3 ± 0.94%
NC(=O)C[S+]([O-])C(c1ccccc1)c1ccccc1 (configuration not stated) [Modafinil] + CCCCNC(=O)OCC#CI [3-iodo-2-propynyl butylcarbamate (IPBC)] | 82 ± 3.5% | 93.5 ± 2.9%
O=C1c2ccccc2C(=O)C1c1ccccc1 [Phenindione] + CCCCNC(=O)OCC#CI [3-iodo-2-propynyl butylcarbamate (IPBC)] | 77.04 ± 0.16% | 88.52 ± 0.84%
CC[C@H]1OC(=O)[C@H](C)[C@@H](O[C@H]2C[C@@](C)(OC)[C@@H](O)[C@H](C)O2)[C@H](C)[C@@H](O[C@@H]2O[C@H](C)C[C@H](N(C)C)[C@H]2O)[C@](C)(O)C[C@@H](C)C(=O)[C@H](C)[C@@H](O)[C@]1(C)O [Erythromycin] + CCCCNC(=O)OCC#CI [3-iodo-2-propynyl butylcarbamate (IPBC)] | 45.3 ± 0.79% | –
Cc1c(Cl)cccc1Nc1ccccc1C(=O)O [Tolfenamic acid] + CCCCNC(=O)OCC#CI [3-iodo-2-propynyl butylcarbamate (IPBC)] | 75.1 ± 3.6% | 88 ± 3.2%
CCc1ccc(CCOc2ccc(CC3SC(=O)NC3=O)cc2)nc1 (configuration not stated) [Pioglitazone] + CCCCNC(=O)OCC#CI [3-iodo-2-propynyl butylcarbamate (IPBC)] | 87.4 ± 7% | 90.3 ± 4.5%
C[C@H](N[C@@H](CCc1ccccc1)C(=O)O)C(=O)N1CCC[C@H]1C(=O)O [Enalaprilat dihydrate] + CCCCNC(=O)OCC#CI [3-iodo-2-propynyl butylcarbamate (IPBC)] | 85.61 ± 0.48% | 87.8 ± 1.1%
CC(=O)[C@@]12O[C@](C)(c3ccccc3)O[C@@H]1C[C@H]1[C@@H]3CCC4=CC(=O)CC[C@]4(C)[C@H]3CC[C@@]12C [Algestone acetophenide] + CCCCNC(=O)OCC#CI [3-iodo-2-propynyl butylcarbamate (IPBC)] | 118 ± 2.4% | 114 ± 1.5%
C[C@]12CCC(=O)C=C1CC[C@@H]1[C@@H]2C(=O)C[C@@]2(C)[C@H]1CC[C@]2(O)C(=O)CO [Cortisone] + CCCCNC(=O)OCC#CI [3-iodo-2-propynyl butylcarbamate (IPBC)] | 84.3 ± 2.1% | 92.9 ± 4.4%
COC(=O)[C@H](c1ccccc1Cl)N1CCc2sccc2C1 [Clopidogrel] + CCCCNC(=O)OCC#CI [3-iodo-2-propynyl butylcarbamate (IPBC)] | 53.4 ± 0.64% | 79.5 ± 0.42%
COCCCC/C(=N\OCCN)c1ccc(C(F)(F)F)cc1 [Fluvoxamine maleate] + CCCCNC(=O)OCC#CI [3-iodo-2-propynyl butylcarbamate (IPBC)] | 78.8 ± 1.3% | 87.9 ± 2.1%
CCOC(=O)N1CCC(=C2c3ccc(Cl)cc3CCc3cccnc32)CC1 [Loratadine] + CCCCNC(=O)OCC#CI [3-iodo-2-propynyl butylcarbamate (IPBC)] | 17.3 ± 4% | 58.7 ± 2.5%

SMILES | growth yield (40 h) | growth yield (72 h)
C[C@]12CC[C@H](O)C[C@H]1CC[C@@H]1[C@@H]2C[C@@H](O)[C@]2(C)[C@@H](C3=CC(=O)OC3)CC[C@]12O [Digoxigenin] + CCCCNC(=O)OCC#CI [3-iodo-2-propynyl butylcarbamate (IPBC)] | 86.6 ± 2.7% | 90.72 ± 0.32%
COc1ccc(CC(C)NCC(O)c2ccc(O)c(NC=O)c2)cc1 (configuration not stated) [Formoterol fumarate] + CCCCNC(=O)OCC#CI [3-iodo-2-propynyl butylcarbamate (IPBC)] | 99.75 ± 0.32% | 96 ± 1.6%
CC(Cc1ccccc1)NCCC(c1ccccc1)c1ccccc1 (configuration not stated) [Prenylamine lactate] + CCCCNC(=O)OCC#CI [3-iodo-2-propynyl butylcarbamate (IPBC)] | 68.5 ± 1.1% | 94.91 ± 0.73%
CC(C)(C)C(=O)OCOC(=O)[C@@H]1N2C(=O)[C@@H](/N=C/N3CCCCCC3)[C@H]2SC1(C)C [Pivmecillinam hydrochloride] + CCCCNC(=O)OCC#CI [3-iodo-2-propynyl butylcarbamate (IPBC)] | 57.8 ± 4.5% | 77.2 ± 3.1%
OCC(O)CN1CCN(c2ccccc2)CC1 (racemic) [Dropropizine (R,S)] + CCCCNC(=O)OCC#CI [3-iodo-2-propynyl butylcarbamate (IPBC)] | 89.6 ± 6.7% | 95.6 ± 4.2%
CNc1ncnc2c1ncn2[C@@H]1O[C@H](CO)[C@@H](O)[C@H]1O [N6-methyladenosine] + CCCCNC(=O)OCC#CI [3-iodo-2-propynyl butylcarbamate (IPBC)] | 87.5 ± 1.8% | 95.75 ± 0.73%
C[C@@H](O)[C@H]1C(=O)N2C(C(=O)O)=C(SCCNC=N)C[C@H]12 [Imipenem] + CCCCNC(=O)OCC#CI [3-iodo-2-propynyl butylcarbamate (IPBC)] | 84.5 ± 1.9% | 90.6 ± 1.3%
c1ccc2c(c1)CCCC2C1=NCCN1 (configuration not stated) [Tetrahydrozoline hydrochloride] + CCCCNC(=O)OCC#CI [3-iodo-2-propynyl butylcarbamate (IPBC)] | 88 ± 3.2% | 91 ± 2.9%
O=C1NCCN1c1ncc([N+](=O)[O-])s1 [Niridazole] + CCCCNC(=O)OCC#CI [3-iodo-2-propynyl butylcarbamate (IPBC)] | 80.7 ± 2.5% | 89.5 ± 2.2%
Nc1ccc(S(=O)(=O)NC(=O)c2ccccc2)cc1 [Sulfabenzamide] + CCCCNC(=O)OCC#CI [3-iodo-2-propynyl butylcarbamate (IPBC)] | 102 ± 4.6% | 100 ± 4.1%
C=C(CC)C(=O)c1ccc(OCC(=O)O)c(Cl)c1Cl [Ethacrynic acid] + CCCCNC(=O)OCC#CI [3-iodo-2-propynyl butylcarbamate (IPBC)] | 75.8 ± 5.6% | 80.5 ± 1.7%
CCN(CC)CCCC(C)Nc1ccnc2cc(Cl)ccc12 (configuration not stated) [Chloroquine diphosphate] + CCCCNC(=O)OCC#CI [3-iodo-2-propynyl butylcarbamate (IPBC)] | 87.7 ± 5.7% | 92.1 ± 5.7%
CS(=O)(=O)c1ccc([C@@H](O)[C@@H](CF)NC(=O)C(Cl)Cl)cc1 [Florfenicol] + CCCCNC(=O)OCC#CI [3-iodo-2-propynyl butylcarbamate (IPBC)] | 81.8 ± 4.6% | 84.7 ± 3.8%
CC(C(=O)O)c1cccc(Oc2ccccc2)c1 (configuration not stated) [Fenoprofen calcium salt dihydrate] + CCCCNC(=O)OCC#CI [3-iodo-2-propynyl butylcarbamate (IPBC)] | 73.9 ± 12% | 84 ± 9.1%
Oc1ccc(C2CNCCc3c2cc(O)c(O)c3Cl)cc1 (configuration not stated) [Fenoldopam] + CCCCNC(=O)OCC#CI [3-iodo-2-propynyl butylcarbamate (IPBC)] | 83.71 ± 0.48% | 88.2 ± 1.8%
CCCc1ncc(C[n+]2ccccc2C)c(N)n1 [Amprolium hydrochloride] + CCCCNC(=O)OCC#CI [3-iodo-2-propynyl butylcarbamate (IPBC)] | 89.11 ± 0.16% | 94.6 ± 2.5%
CCn1cc(C(=O)O)c(=O)c2cc(F)c(N3CCNCC3)nc21 [Enoxacin] + CCCCNC(=O)OCC#CI [3-iodo-2-propynyl butylcarbamate (IPBC)] | 83.9 ± 1.6% | 87 ± 1.5%
CC(=O)OCC(=O)NCCCOc1cccc(CN2CCCCC2)c1 [Roxatidine Acetate hydrochloride] + CCCCNC(=O)OCC#CI [3-iodo-2-propynyl butylcarbamate (IPBC)] | 82.9 ± 2.2% | 92 ± 2%
NS(=O)(=O)c1cc(C2(O)NC(=O)c3ccccc32)ccc1Cl (configuration not stated) [Chlorthalidone] + CCCCNC(=O)OCC#CI [3-iodo-2-propynyl butylcarbamate (IPBC)] | 96.3 ± 5.4% | 100 ± 2.2%
